{
  "source": "paper PMC4336329",
  "about": "(PLoS ONE, 2015)",
  "note": "The whole screen tested about 310,000 compounds, of which about 2,200 (0.71%) showed an effect of 50% or more. Effects have a minus sign here. Some of the results follow.",
  "data": [
    {"molecular_target": "human ether-à-go-go-related gene (hERG) potassium channel (human, UniProt Q12809)", "sequence (Q12809 whole entry, looked up)": "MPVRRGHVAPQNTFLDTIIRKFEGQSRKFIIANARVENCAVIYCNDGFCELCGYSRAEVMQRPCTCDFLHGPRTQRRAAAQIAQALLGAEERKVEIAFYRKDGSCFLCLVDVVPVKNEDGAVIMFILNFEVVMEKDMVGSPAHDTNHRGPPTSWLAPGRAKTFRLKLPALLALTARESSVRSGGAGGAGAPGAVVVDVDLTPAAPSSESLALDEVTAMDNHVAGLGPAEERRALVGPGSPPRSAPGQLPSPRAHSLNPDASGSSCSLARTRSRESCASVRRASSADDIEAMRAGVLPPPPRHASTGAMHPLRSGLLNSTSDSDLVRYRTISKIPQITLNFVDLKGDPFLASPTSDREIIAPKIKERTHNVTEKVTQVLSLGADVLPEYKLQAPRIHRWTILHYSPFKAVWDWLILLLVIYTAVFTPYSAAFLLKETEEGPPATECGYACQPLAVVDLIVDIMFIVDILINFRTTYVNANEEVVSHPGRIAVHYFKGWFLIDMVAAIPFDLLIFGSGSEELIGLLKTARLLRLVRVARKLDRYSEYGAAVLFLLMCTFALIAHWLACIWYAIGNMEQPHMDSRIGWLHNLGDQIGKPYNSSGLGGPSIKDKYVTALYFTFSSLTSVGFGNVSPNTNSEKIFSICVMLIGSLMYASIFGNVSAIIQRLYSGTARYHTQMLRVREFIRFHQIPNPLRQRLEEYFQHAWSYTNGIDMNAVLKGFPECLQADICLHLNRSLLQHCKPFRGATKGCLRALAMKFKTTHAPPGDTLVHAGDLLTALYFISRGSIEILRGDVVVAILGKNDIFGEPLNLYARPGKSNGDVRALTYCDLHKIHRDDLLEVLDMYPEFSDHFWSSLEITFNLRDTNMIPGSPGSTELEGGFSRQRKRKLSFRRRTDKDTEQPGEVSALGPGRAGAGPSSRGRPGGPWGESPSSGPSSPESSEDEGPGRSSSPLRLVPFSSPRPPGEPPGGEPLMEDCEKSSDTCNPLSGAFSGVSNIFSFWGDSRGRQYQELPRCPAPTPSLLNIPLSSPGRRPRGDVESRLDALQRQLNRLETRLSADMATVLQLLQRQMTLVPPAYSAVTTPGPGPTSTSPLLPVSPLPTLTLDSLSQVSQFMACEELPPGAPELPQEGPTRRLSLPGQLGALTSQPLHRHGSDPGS", "assay": "primary screen, population patch clamp on CHO cells stably expressing hERG", "units": {"hERG current change (%, negative = inhibition) at 1uM": "%"}, "values": [
      {"smiles": "Cc1ccc(-c2nnc(N3CCN(CCO)CC3)c3ccccc23)cc1", "hERG current change (%, negative = inhibition) at 1uM": -13.2},
      {"smiles": "O=C(c1ccccc1F)N1CCN(S(=O)(=O)c2ccc(S(=O)(=O)N3CCCCCC3)cc2)CC1", "hERG current change (%, negative = inhibition) at 1uM": 3.69},
      {"smiles": "N#Cc1nc(-c2cccs2)oc1NCCCN1CCOCC1", "hERG current change (%, negative = inhibition) at 1uM": 10.3},
      {"smiles": "CC1=CC(=C2N=C(c3ccccc3)OC2=O)C=C(C)O1", "hERG current change (%, negative = inhibition) at 1uM": -15.1},
      {"smiles": "Cc1ccc(Nc2nc3ccccc3c(=O)s2)cc1", "hERG current change (%, negative = inhibition) at 1uM": 5.77},
      {"smiles": "COc1cc(NC(=S)N2c3ccccc3CC2C)cc(OC)c1", "note": "(centres unmarked)", "hERG current change (%, negative = inhibition) at 1uM": 14.3},
      {"smiles": "Cc1onc(-c2c(F)cccc2Cl)c1C(=O)NC(C)c1ccccc1", "note": "(centres unmarked)", "hERG current change (%, negative = inhibition) at 1uM": 13.1},
      {"smiles": "CN1CCN(CC(=O)NN(Cc2ccccc2)c2ccccc2)CC1.O=C(O)C(=O)O", "hERG current change (%, negative = inhibition) at 1uM": 2.11},
      {"smiles": "C/C(=N\\NC(=O)c1cc(C)nc2ccccc12)c1ccco1", "hERG current change (%, negative = inhibition) at 1uM": 6.1},
      {"smiles": "Cc1cc(C)n(CCN(C)Cc2nc(Cc3ccccc3F)no2)n1", "hERG current change (%, negative = inhibition) at 1uM": -3.25},
      {"smiles": "CCCCCCN(C(=O)CCCCCN1C(=O)NC(c2ccc(-c3ccccc3)cc2)C(C(=O)OCc2ccccc2)=C1C)C(C(=O)NCCCC)c1ccc(OCC(=O)OC)c(C(=O)OC)c1", "note": "(centres unmarked)", "hERG current change (%, negative = inhibition) at 1uM": 22.4},
      {"smiles": "CCCC[N+]12CCC(CC1)C(C(=O)c1cccs1)C2.[Br-]", "note": "(centres unmarked)", "hERG current change (%, negative = inhibition) at 1uM": 6.15},
      {"smiles": "O=S(=O)(NCCc1csc(-c2ccc(C(F)(F)F)cc2)n1)c1ccc2c(c1)OCCO2", "hERG current change (%, negative = inhibition) at 1uM": 6.04},
      {"smiles": "Cc1ccc(C)c(NC(=O)c2cc(S(=O)(=O)N3CCOCC3)cn2C)c1", "hERG current change (%, negative = inhibition) at 1uM": 6.73},
      {"smiles": "COc1ccccc1N1CC(C)(C)C(=O)N(C(=O)c2ccc(Cl)cc2)C1=S", "hERG current change (%, negative = inhibition) at 1uM": 8.3},
      {"smiles": "CCOc1ccc(N(CC(=O)NCc2ccc(Cl)cc2)S(=O)(=O)c2ccccc2)cc1", "hERG current change (%, negative = inhibition) at 1uM": 13.8},
      {"smiles": "CCS(=O)(=O)Nc1ccc2[nH]c(=O)[nH]c2c1", "hERG current change (%, negative = inhibition) at 1uM": 16.7},
      {"smiles": "CCC(C(=O)O)N1C(=O)C2CCCCC2C1=O", "note": "(centres unmarked)", "hERG current change (%, negative = inhibition) at 1uM": 5.66},
      {"smiles": "Fc1c(CSC(=S)N2CCOCC2)cccc1CSC(=S)N1CCOCC1", "hERG current change (%, negative = inhibition) at 1uM": 13.1},
      {"smiles": "O=C(Cn1nc(C(=O)O)c2ccccc2c1=O)c1cc(F)ccc1F", "hERG current change (%, negative = inhibition) at 1uM": 16},
      {"smiles": "O=C(CNC(=O)c1ccccc1Cl)N/N=C/c1ccc2c(c1)OCO2", "hERG current change (%, negative = inhibition) at 1uM": 18.7},
      {"smiles": "Cc1cc(N2CCCCC2)c(F)cc1[N+](=O)[O-]", "hERG current change (%, negative = inhibition) at 1uM": -5.81},
      {"smiles": "Cc1ccc(S(=O)(=O)N2CCC(N3CCC(C)CC3)CC2)cc1", "hERG current change (%, negative = inhibition) at 1uM": 4.46},
      {"smiles": "Cc1ccccc1C(=O)N1CCC(n2nccc2NC(=O)C2CC2)CC1", "hERG current change (%, negative = inhibition) at 1uM": 8.89},
      {"smiles": "Cc1ccc(NC(=O)CCc2nc3sc4c(c3c(=O)[nH]2)CCCC4)nc1", "hERG current change (%, negative = inhibition) at 1uM": 6.4},
      {"smiles": "Cc1ccc(C)c(NC(=S)c2ccc3ccccc3n2)c1", "hERG current change (%, negative = inhibition) at 1uM": 4.52},
      {"smiles": "COc1ccc2oc(C(=O)OCC(=O)N3C(C)CCCC3C)c(C)c2c1", "note": "(centres unmarked)", "hERG current change (%, negative = inhibition) at 1uM": 11.3},
      {"smiles": "O=C(NC1CCCCC1)c1cc(Cl)ccc1[N+](=O)[O-]", "hERG current change (%, negative = inhibition) at 1uM": 6.88},
      {"smiles": "Cc1nc([N+](=O)[O-])c(Br)n1CC(=O)c1ccccc1", "hERG current change (%, negative = inhibition) at 1uM": -1.42},
      {"smiles": "COc1ccc(C(=O)C2CCN(C(=S)NCC3CCCO3)CC2)cc1", "note": "(centres unmarked)", "hERG current change (%, negative = inhibition) at 1uM": 6.96},
      {"smiles": "COc1ccc(S(=O)(=O)N2CCN(C(=O)c3cc(-c4ccccc4OC)n[nH]3)CC2)cc1", "hERG current change (%, negative = inhibition) at 1uM": 7.47},
      {"smiles": "O=C1CCNc2c(Cl)cccc21", "hERG current change (%, negative = inhibition) at 1uM": 13.4},
      {"smiles": "Cc1cc(C)cc(NC(=O)CSc2nc3ccncc3[nH]2)c1", "hERG current change (%, negative = inhibition) at 1uM": 7.44},
      {"smiles": "CCN1CCN(Cc2ccc(NC(=O)c3ccc(C)c(NC(=O)c4cccc(-c5cn[nH]c(=O)c5)c4)c3)cc2C(F)(F)F)CC1.O=C(O)C(F)(F)F", "hERG current change (%, negative = inhibition) at 1uM": 12.5},
      {"smiles": "CN(C)C(/C=C/Nc1ccc(C#N)cc1)=C(C#N)C#N", "hERG current change (%, negative = inhibition) at 1uM": 6.76},
      {"smiles": "O=CN1CCN(C(=S)Nc2ccc(OC(F)F)cc2)CC1", "hERG current change (%, negative = inhibition) at 1uM": 2.33},
      {"smiles": "COc1cc(OC)c(C2C(C(=O)O)c3ccccc3C(=O)N2C)cc1OC", "note": "(centres unmarked)", "hERG current change (%, negative = inhibition) at 1uM": 10.5},
      {"smiles": "O=c1cc(CO)oc(CN2CCN(Cc3ccccc3)CC2)c1O", "hERG current change (%, negative = inhibition) at 1uM": 8.83},
      {"smiles": "Cc1nc2ccccc2n1C1CC(=O)N(N(C)C)C1=O", "note": "(centres unmarked)", "hERG current change (%, negative = inhibition) at 1uM": 11.9},
      {"smiles": "Cc1cc(Cl)ccc1OCCn1cncn1", "hERG current change (%, negative = inhibition) at 1uM": -4.7},
      {"smiles": "CC(C)Sc1nnc([C@@H](N)Cc2ccccc2)o1.Cl", "hERG current change (%, negative = inhibition) at 1uM": 6.97},
      {"smiles": "CCn1cc(CNC(=O)c2cccc([N+](=O)[O-])c2)cn1", "hERG current change (%, negative = inhibition) at 1uM": 9.63},
      {"smiles": "O=C(NCCc1ccco1)C(=O)NCC1CCCN1S(=O)(=O)c1ccccc1", "note": "(centres unmarked)", "hERG current change (%, negative = inhibition) at 1uM": 3.3},
      {"smiles": "O=C(Nc1ccc(Br)cc1)N1CCc2ccccc2C1", "hERG current change (%, negative = inhibition) at 1uM": 18}
    ]}
  ]
}
